Results on 54 compounds are retold here after ChEMBL document CHEMBL4888484, “Replenishing the malaria drug discovery pipeline: Screening and hit evaluation of the MMV Hit Generation Library 1 (HGL1) against asexual blood stage Plasmodium falciparum ,using a nano luciferase reporter read-out” (2022).

Out of some 150,000 compounds screened, about 540 (0.36%) showed an effect of 50% or more. The list shows a part of the results.

For this experiment, the system named is Plasmodium falciparum. Nature of the experiment: Primary screen in NF54 nanoGlo assay, in single point, at 2uM, 72h; a lower Z score goes with more inhibition. The format is functional, Erythrocyte. The note with it: timepoint 72 hour.
As for `O=C(Nc1ccnn1C1CCCCC1)c1cccnc1`, the “% Inhibition” value is on record as -6% and the Z score turned out to be 0.72.

As for `O=c1ncn(Cc2ccc3c(c2)OCO3)cc1-c1ncc(C(F)(F)F)cc1Cl`, the “% Inhibition” value was 5% and the Z score is -0.75.

Take `CCn1cc(-c2cccc(C(=O)N[C@@H](C)c3nc(C)sc3C)c2)cn1`: the “% Inhibition” value is given as -4% and the Z score amounted to 0.85.

Take `COc1ccc(O[C@H]2COCCN(S(=O)(=O)c3ccc(F)cc3)C2)cc1`: the “% Inhibition” value is -7% and the Z score worked out at 1.03.

For the compound `CCS(=O)(=O)NCCCNc1nnc(-c2ccc(O)cc2)s1`, the “% Inhibition” value is -19% and the Z score amounted to 2.42.

Turning to `Cc1cnn(C2CN(CC(=O)N3CC(=O)Nc4ccccc43)C2)c1`, the “% Inhibition” value was -10% and the Z score turned out to be 1.59.

For `CC(=O)N1CCCN(C(=O)c2cc(C(N)=O)cs2)CC1`, the “% Inhibition” value was -3% and the Z score is 0.53.

For `CCC(=O)N1CCc2cc(N3C[C@@H](C(=O)NC4CCCCC4)CC3=O)ccc21`, the “% Inhibition” value is reported as 1% and the Z score was -0.18.

For the compound `Cc1c(NC(=O)N[C@@H](C)c2nc3c(s2)CCCC3)cnn1C`, the “% Inhibition” value stood at 0% and the Z score turned out to be 0.07.

For the compound `O=C1N[C@H]2CC[C@@H]1CN(C(=O)c1cccc(-c3ccc4nccc(O)c4c3)c1)C2`, the “% Inhibition” value was -3% and the Z score stood at 0.64.

Consider `CCCCc1oc2ccccc2c1CN1CCC(NC(C)=O)CC1`, for which the “% Inhibition” value is -8% and the Z score came to 0.86.

In the case of `COc1cc(C(=O)N(C)C[C@H]2CCOC2)ccn1`, the “% Inhibition” value worked out at 0% and the Z score came to 0.01.

As to `C[C@H]1CN(C(=O)c2cccc(Oc3ccncc3)c2)CCN1`, the “% Inhibition” value is given as -5% and the Z score is reported as 0.71.

For the compound `CCC[C@H](C)CS(=O)(=O)N(C)C1CCC(C)CC1` (stereo partly drawn), the “% Inhibition” value is listed as -1% and the Z score is 0.15.

As for `COc1ccc(Cc2nc(-c3sccc3Cl)n(CCO)n2)cc1`, the “% Inhibition” value turned out to be 1% and the Z score is listed as -0.26.

`CC(C(=O)Nc1cc(Cl)cc(Cl)c1)N1CCCC(c2nnc3ccc(C(F)(F)F)cn23)C1` (stereo not drawn): the “% Inhibition” value is recorded as -10% and the Z score amounted to 1.13.

Regarding `COc1ccccc1NC(=O)c1oc2ccccc2c1NC(=O)C1CCCC1`, the “% Inhibition” value worked out at 5% and the Z score is recorded as -0.85.

With `O=C(CCN1CCC[C@H](NCc2ccccc2)C1)Nc1ccccc1Cl`, the “% Inhibition” value is reported as -2% and the Z score worked out at 0.2.

`CCOC(=O)N1CCc2c(sc(NCc3ccccc3OCC)c2C(=O)Nc2cc(Cl)ccc2OC)C1`: the “% Inhibition” value was 3% and the Z score is listed as -0.52.

Take `CC(C)(C)OC(=O)N1CCOCC1C1CCCC1NCC(=O)NCC1CC1` (stereo not drawn): the “% Inhibition” value is on record as -1% and the Z score was determined as 0.09.

With `CC(C)c1nccn1CCC(=O)N1CC[C@H](N)C1`, the “% Inhibition” value amounted to 6% and the Z score is reported as -0.94.

Regarding `CCCN1CCN(CCN2CCOC[C@@H]2C)C(C)(C)C1=O`, the “% Inhibition” value is listed as -3% and the Z score was 0.35.

For the compound `O=C(Nc1ccc(C(=O)c2ccncc2)cc1)c1ccc(O[C@@H](F)C(F)(F)C(F)(F)F)cc1`, the “% Inhibition” value is 3% and the Z score was -0.38.

Consider `COc1cccn2ncc(C(=O)N3CCC[C@H]3c3nc(C)cs3)c12`, for which the “% Inhibition” value worked out at 1% and the Z score is -0.08.

As to `O=C(NCc1ccncc1)[C@H]1CCCN(S(=O)(=O)c2ccc3ccccc3c2)C1`, the “% Inhibition” value is listed as -7% and the Z score came out at 1.26.

For `Cc1cc(NC(=O)Cn2nc(C3CC3)ccc2=O)sn1`, the “% Inhibition” value came out at 14% and the Z score is given as -1.86.

As to `O=C(NCc1ccc(S(=O)(=O)N2CCOCC2)s1)c1ccc(F)cc1F`, the “% Inhibition” value was determined as 0% and the Z score is on record as 0.07.

With `CC(=O)Nc1ccc(C)cc1S(=O)(=O)N1CCCCC[C@H]1c1ccc(C)s1`, the “% Inhibition” value is on record as -10% and the Z score was determined as 1.34.

For the compound `COC1CN(c2ccc(NC(=O)CCc3ccc(Cl)c(C)c3)cc2)C1`, the “% Inhibition” value is reported as -8% and the Z score amounted to 1.23.

With `Cc1nn(C)c(Cl)c1S(=O)(=O)N1CCC[C@H]1C(N)=O`, the “% Inhibition” value is on record as -6% and the Z score is reported as 0.79.

For the compound `CC1CC(NCc2ccccc2OCCN2CCOCC2)CN1C` (stereo not drawn), the “% Inhibition” value was determined as 7% and the Z score is recorded as -1.05.

Consider `Cc1noc(-c2cccc(NC(=O)C3CCN(S(=O)(=O)c4ccc5c(c4)CCC5)CC3)c2)n1`, for which the “% Inhibition” value stood at 12% and the Z score is given as -1.62.

Turning to `O=C(c1ccc(S(=O)(=O)N2CCCCC2)cc1)N1CCCCC1`, the “% Inhibition” value was -6% and the Z score is 0.87.

For the compound `CN1CC2(CCN(C(=O)c3ccc(F)cc3)CC2)C[C@@H](c2ccccc2)C1=O`, the “% Inhibition” value came out at 15% and the Z score is -2.

With `FC(F)(F)c1cccc(Oc2cc(Oc3cccc(C(F)(F)F)c3)nc(-c3ccccc3)n2)c1`, the “% Inhibition” value was -12% and the Z score is on record as 2.26.

As to `COc1ccc(-c2nc3ccc(C(=O)NCCN4CCOCC4)cc3nc2-c2ccc(OC)cc2)cc1`, the “% Inhibition” value was 9% and the Z score is -1.19.

On to `CCc1cnc(CNC(=O)Nc2cccc(N3CCCC3=O)c2)s1`, for which the “% Inhibition” value is on record as -2% and the Z score is listed as 0.22.

As for `O=C(c1cnn2c1OCCC2)N1CCN(c2ccccc2Cl)CC1`, the “% Inhibition” value is -9% and the Z score amounted to 1.36.

Regarding `C=CCn1cnc2c1c(=O)n(C1CC1)c(=O)n2-c1ccc(F)cc1`, the “% Inhibition” value is given as -13% and the Z score is listed as 1.27.

With `Cc1cc(C)cc(CN2CCN(C(=O)c3cnc(C)cc3C)CC2=O)c1`, the “% Inhibition” value is recorded as -6% and the Z score came to 0.94.

For the compound `CC(C)Cc1nnc(NC(=O)c2ccccn2)[nH]1`, the “% Inhibition” value was -15% and the Z score is recorded as 1.84.

With `CN(Cc1ccccc1N1CCOCC1)c1ccc2nncn2n1`, the “% Inhibition” value is on record as -25% and the Z score came out at 2.51.

Regarding `Cc1ccc(CCC(=O)N2CC(CN3C(=O)COC3=O)C2)cc1C`, the “% Inhibition” value is 15% and the Z score is -1.96.

`COc1cc(OC)cc(C(=O)N[C@@H](Cn2nccn2)C(C)C)c1`: the “% Inhibition” value is reported as -12% and the Z score is reported as 1.83.

As to `COC1(CNC(=O)NC2(Cc3ccccc3)CCCC2)CCOCC1`, the “% Inhibition” value is given as -6% and the Z score was found to be 0.73.

`Cc1cc(NC(=O)NCc2ccccc2CC(F)(F)F)c(N(C)C)nn1`: the “% Inhibition” value was -2% and the Z score turned out to be 0.39.

As to `Cc1sccc1NC(=O)NCc1nc(CN(C)C)cs1`, the “% Inhibition” value is -4% and the Z score is recorded as 0.69.

As to `O=S(=O)(NCC1CCCC1O)C1Cc2ccccc2C1` (stereo not drawn), the “% Inhibition” value is recorded as -3% and the Z score is given as 0.41.

As for `CCOC(=O)c1cnc(N2CCN(Cc3ccccn3)CC2)s1`, the “% Inhibition” value is listed as -11% and the Z score was 1.52.

Turning to `CC(C)(NC(=O)c1cnc(OCC2CC2)cn1)C(F)(F)F`, the “% Inhibition” value is 1% and the Z score is on record as -0.23.

Turning to `CN1CCN(S(=O)(=O)c2cccc3nsnc23)C[C@@H]1CO`, the “% Inhibition” value worked out at 0% and the Z score is -0.02.

For `CCn1ccc2ccc(CN3CCC(CC(=O)NC)CC3)cc21`, the “% Inhibition” value is -3% and the Z score is reported as 0.56.

Turning to `CN(c1cccnn1)C1CCN(C(=O)Nc2ccc(F)cc2)CC1`, the “% Inhibition” value is recorded as 32% and the Z score was -3.58.

Take `Cc1c([C@@H]2CCCN2C(=O)c2cc(C#N)ccc2Cl)cnn1C`: the “% Inhibition” value is listed as -1% and the Z score worked out at 0.19.

The % Inhibition is the drop in the measured response relative to a control, in per cent.
